Assay [1] has as its target MYB44 (BiFC fusions MYB44-YN and MYB44-YC) (Arabidopsis thaliana) (UniProt Q9FDW1). The assay is described as follows: split reporter; BiFC with YN/YC halves of YFP, tobacco leaves infiltrated with Agrobacteria (GV3101, pGreen constructs), fluorescence microscopy 4-7 days after infiltration.
The target is the same in assay [2]. The assay is described as follows: split reporter; BiFC with YN/YC halves of YFP, Arabidopsis mesophyll protoplasts, PEG-mediated transformation, fluorescence microscopy 12-16 h after transformation.
Assay [3] has as its target T1, MKK4 (BiFC fusion MKK4-YN) (Arabidopsis) (UniProt O80397).
T1 sequence: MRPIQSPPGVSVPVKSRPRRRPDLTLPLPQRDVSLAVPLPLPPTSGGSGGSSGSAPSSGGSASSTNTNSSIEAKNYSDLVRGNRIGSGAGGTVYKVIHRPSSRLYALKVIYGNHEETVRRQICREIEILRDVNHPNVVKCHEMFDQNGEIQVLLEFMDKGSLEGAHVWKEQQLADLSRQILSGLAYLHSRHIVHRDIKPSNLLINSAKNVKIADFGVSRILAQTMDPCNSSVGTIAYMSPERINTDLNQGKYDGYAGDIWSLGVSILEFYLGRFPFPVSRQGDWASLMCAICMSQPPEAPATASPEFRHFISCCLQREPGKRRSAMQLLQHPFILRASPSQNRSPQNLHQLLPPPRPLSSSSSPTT
The assay is described as follows: split reporter; BiFC with YN/YC halves of YFP, tobacco leaves infiltrated with Agrobacteria (GV3101, pGreen constructs), fluorescence microscopy 4-7 days after infiltration.

By UniProt entry, the sequences of proteins in these tests, tags left out. Where a name states a change or a piece, a line headed by the entry shows the natural chain unless it says otherwise.
UniProt Q9FDW1: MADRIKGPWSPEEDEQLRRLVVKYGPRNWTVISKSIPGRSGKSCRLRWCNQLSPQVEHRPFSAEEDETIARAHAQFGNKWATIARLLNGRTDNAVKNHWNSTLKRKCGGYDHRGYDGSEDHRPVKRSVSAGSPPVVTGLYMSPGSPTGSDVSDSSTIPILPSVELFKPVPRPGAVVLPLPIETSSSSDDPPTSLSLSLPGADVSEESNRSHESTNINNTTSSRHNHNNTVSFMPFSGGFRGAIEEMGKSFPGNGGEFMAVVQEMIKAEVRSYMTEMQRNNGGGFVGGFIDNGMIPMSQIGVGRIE
UniProt Q39025: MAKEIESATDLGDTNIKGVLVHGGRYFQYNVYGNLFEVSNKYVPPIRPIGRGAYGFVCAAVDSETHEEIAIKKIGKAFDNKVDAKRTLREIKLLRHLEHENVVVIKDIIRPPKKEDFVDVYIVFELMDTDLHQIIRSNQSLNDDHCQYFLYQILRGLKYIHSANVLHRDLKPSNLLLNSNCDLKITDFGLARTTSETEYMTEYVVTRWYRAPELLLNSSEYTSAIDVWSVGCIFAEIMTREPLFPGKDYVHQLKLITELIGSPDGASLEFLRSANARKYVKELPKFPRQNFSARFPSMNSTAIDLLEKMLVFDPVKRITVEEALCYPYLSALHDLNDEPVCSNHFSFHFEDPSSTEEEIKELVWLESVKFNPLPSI
UniProt Q39026: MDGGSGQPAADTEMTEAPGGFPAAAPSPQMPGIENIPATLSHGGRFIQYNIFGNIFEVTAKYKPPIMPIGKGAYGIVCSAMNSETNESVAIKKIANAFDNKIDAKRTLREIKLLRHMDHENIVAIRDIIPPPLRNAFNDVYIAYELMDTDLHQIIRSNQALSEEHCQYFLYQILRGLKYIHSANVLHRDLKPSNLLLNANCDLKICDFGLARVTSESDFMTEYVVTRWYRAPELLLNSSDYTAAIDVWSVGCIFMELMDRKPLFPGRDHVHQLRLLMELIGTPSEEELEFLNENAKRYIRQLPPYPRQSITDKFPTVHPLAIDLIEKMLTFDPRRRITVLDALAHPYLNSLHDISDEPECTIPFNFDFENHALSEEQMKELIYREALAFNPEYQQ
UniProt Q9SN12: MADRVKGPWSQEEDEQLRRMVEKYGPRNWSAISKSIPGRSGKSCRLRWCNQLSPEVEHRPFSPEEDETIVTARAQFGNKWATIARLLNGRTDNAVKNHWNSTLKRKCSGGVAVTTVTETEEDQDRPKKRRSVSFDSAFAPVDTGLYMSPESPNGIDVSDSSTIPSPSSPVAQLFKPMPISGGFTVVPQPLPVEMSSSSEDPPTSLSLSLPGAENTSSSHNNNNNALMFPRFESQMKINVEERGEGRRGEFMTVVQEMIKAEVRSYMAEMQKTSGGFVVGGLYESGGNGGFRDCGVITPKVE

In assay [4] the target is T2, BD-MKK4 (Arabidopsis) (UniProt O80397).
T2 sequence: T1 sequence
Briefly: two-hybrid; targeted test: pGAD (activation domain) and pBTM (binding domain) fusions in S. cerevisiae L40, selection on -Leu/-Trp, liquid beta-galactosidase activity assay; MKK autoactivity subtracted.

Assay [5] deals with MYB44 (yeast two-hybrid fusions AD-MYB44 and BD-MYB44) (Arabidopsis) (UniProt Q9FDW1). Described as above.
Assay [6] addresses T3, BD-MKK5 (Arabidopsis) (UniProt Q8RXG3).
T3 sequence: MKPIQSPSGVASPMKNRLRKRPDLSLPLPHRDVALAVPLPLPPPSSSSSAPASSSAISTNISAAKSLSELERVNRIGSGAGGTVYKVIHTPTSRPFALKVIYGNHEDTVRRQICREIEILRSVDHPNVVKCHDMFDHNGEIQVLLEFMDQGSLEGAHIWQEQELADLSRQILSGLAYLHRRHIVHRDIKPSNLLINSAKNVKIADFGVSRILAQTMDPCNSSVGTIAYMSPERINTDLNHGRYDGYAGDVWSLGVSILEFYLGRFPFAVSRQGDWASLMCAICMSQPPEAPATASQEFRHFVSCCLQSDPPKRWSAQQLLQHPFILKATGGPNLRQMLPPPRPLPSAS
Described as above.

The target of assay [7] is MYB44 S145A (BiFC fusions S145A-YN and S145A-YC) (Arabidopsis thaliana) (UniProt Q9FDW1). Briefly: split reporter; BiFC with YN/YC halves of YFP, tobacco leaves infiltrated with Agrobacteria (GV3101, pGreen constructs), fluorescence microscopy 4-7 days after infiltration.
Assay [8] has as its target MYB44 S145D (BiFC fusions S145D-YN and S145D-YC) (Arabidopsis thaliana) (UniProt Q9FDW1). The assay is described as above.
Assay [9] concerns the target MYB44 (BiFC fusions MYB44-YN and MYB44-YC) (Arabidopsis thaliana) (UniProt Q9FDW1). The assay is described as follows: split reporter; BiFC with YN/YC halves of YFP, Arabidopsis mesophyll protoplasts, PEG-mediated transformation, fluorescence microscopy 12-16 h after transformation. This is another data set of the same source.
The target is the same in assay [10]. Briefly: split reporter; BiFC with YN/YC halves of YFP, tobacco leaves infiltrated with Agrobacteria (GV3101, pGreen constructs), fluorescence microscopy 4-7 days after infiltration. This is another data set of the same source.
The target of assay [11] is T1, MKK4 (BiFC fusion MKK4-YN) (Arabidopsis). The assay is described as follows: split reporter; BiFC with YN/YC halves of YFP, Arabidopsis mesophyll protoplasts, PEG-mediated transformation, fluorescence microscopy 12-16 h after transformation.
For assay [12] the target is unchanged. Briefly: split reporter; BiFC with YN/YC halves of YFP, tobacco leaves infiltrated with Agrobacteria (GV3101, pGreen constructs), fluorescence microscopy 4-7 days after infiltration. The source holds these as a separate data set.

Experimental findings from publication PMC3578790, “Tight Interconnection and Multi-Level Control of Arabidopsis MYB44 in MAPK Cascade Signalling” are described below.

Results are given in words; binding and its absence hold for the method and conditions named. For some of these results: Binding seen in cells or lysates may run through a third protein. Some entries that bind do so weakly or less than the wild type. For some of these results: Sequences can lack the tags named with a protein.

Regarding MPK5-YC (from UniProt Q39025 1-376), the binding result in assay [1] and in [2] was “no binding” throughout.

On to “MPK6 (BiFC fusion) (from UniProt Q39026 1-395)”, for which the binding entry in [3] is on record as “binds”.

In the case of “MPK6 (yeast two-hybrid fusion) (from UniProt Q39026 1-395)”, the binding result in [4] is given as “binds”.

On to “MYB44 (BiFC fusions MYB44-YN and MYB44-YC) (from UniProt Q9FDW1 1-305)”, for which the binding entry in [1] and in assay [2] was “binds” throughout.

For “MYB44 (yeast two-hybrid fusions AD-MYB44 and BD-MYB44) (from UniProt Q9FDW1 1-305)”, the figures for the binding entry in assay [5], in [6] and in assay [4] were “binds”, “binds weakly” and “binds”, respectively.

With “MYB44 S145A (BiFC fusions S145A-YN and S145A-YC) (from UniProt Q9FDW1 1-305)”, the binding entry in assay [7] was “binds”.

“MYB44 S145D (BiFC fusions S145D-YN and S145D-YC) (from UniProt Q9FDW1 1-305)”: the binding result in [8] is recorded as “binds”.

Take “MYB77 (BiFC fusion) (from UniProt Q9SN12 1-301)”: the binding result in assay [2] is given as “binds”.

B1: MKK4 (BiFC fusion MKK4-YN) (protein, UniProt O80397 1-366)
chain: T1 sequence
For B1, the binding entry in assay [9] and in [10] was “binds” each time.

B2: MPK3 (BiFC fusions MPK3-YC and MPK3-YN) (protein, UniProt Q39023 1-370)
chain: MNTGGGQYTDFPAVETHGGQFISYDIFGSLFEITSKYRPPIIPIGRGAYGIVCSVLDTETNELVAMKKIANAFDNHMDAKRTLREIKLLRHLDHENIIAIRDVVPPPLRRQFSDVYISTELMDTDLHQIIRSNQSLSEEHCQYFLYQLLRGLKYIHSANIIHRDLKPSNLLLNANCDLKICDFGLARPTSENDFMTEYVVTRWYRAPELLLNSSDYTAAIDVWSVGCIFMELMNRKPLFPGKDHVHQMRLLTELLGTPTESDLGFTHNEDAKRYIRQLPNFPRQPLAKLFSHVNPMAIDLVDRMLTFDPNRRITVEQALNHQYLAKLHDPNDEPICQKPFSFEFEQQPLDEEQIKEMIYQEAIALNPTYG
Turning to B2, the binding entry in [11] and in [12] was “binds” each time.
